Assay results as given in patent US8785135B2, “Mutant G-protein coupled receptors and methods for selecting them” (Heptares Therapeutics Limited, priority 2007, dated 2014).
Counter-ions that a name gives are not always drawn. Like-named read-outs stand apart in the source and are kept apart here.

Columns and labels:
[1] = 0.5 h
[2] = Stability of βAR-m23 and βAR34-424 in different detergents; assay type: physicochemical
Procedure: FIG. 6 Stability of βAR-m23 and βAR34-424 in five different detergents. […] Assays were carried out as described in the Methods and the Tm is shown at the intersection between the curves and the discontinuous line. Results are from duplicate measurements in a representative experiment performed in parallel.
All of the thermostability assays used to derive βAR-m23 were performed on receptors solubilised in DDM. The aim of the thermostabilisation process was to produce a receptor that is ideal for crystallography, which means being stable in a variety of different detergents and not just DDM. […] In contrast, functional βAR-m23 was still present in all detergents and the Tm could be determined. […]
Single point binding assays contained 20 mM Tris pH 8, 0.4 M NaCl, 1 mM EDTA, 0.1% DDM (or corresponding detergent) with 50 nM [^3H]-DHA and 20-100 μg membrane protein in a final volume of 120 μl; equilibration was for 1 h at 4° C. Thermostability was assessed by incubating the binding assay mix, with or without [^3H]-DHA at the specified temperature for 30 minutes; reactions were placed on ice and [^3H]-DHA added as necessary and equilibrated for a further hour. […] Non-specific binding was determined in the presence of 1 μM of s-propranolol. […] Radioactivity was counted on a Beckman LS6000 liquid scintillation counter and data were analyzed by nonlinear regression using Prism software (GraphPad).

[3] = biological target: T1, βAR34-424 (Meleagris gallopavo, UniProt P07700, C116L)
Procedure: FIG. 8 Saturation binding assays of membranes of βAR34-424 and βAR-m23. Binding assays were performed as described in “Methods” using [^3H]-dihydroalprenolol (DHA) as radioligand; βAR34-424 (a) and βAR-m23 (b). Scatchard plots are shown as insets along with the corresponding values for Bmax and KD. Data points are from duplicates of two independent experiments for each protein.
[…] . Saturation binding experiments to membranes using the antagonist. […] . This is consistent with the observation that none of the mutations in βAR-m23 correspond with amino acids believed to be implicated in ligand binding. […] . From a crystallisation perspective, this is an added bonus to thermostabilisation, because it is essential to have a conformationally homogeneous protein population for the production of diffraction-quality crystals.
For large-scale membrane preparations, 2 L and 6 L of E. coli culture of βAR and Mut23, respectively, were grown as described above. Cells were harvested by centrifugation at 5,000×g for 20 min, frozen in liquid nitrogen and stored at −80° C. […] The protein concentration was determined by the amido black method. […]
Non-specific binding was determined in the presence of 1 μM of s-propranolol. […]

[4] = biological target: T1, βAR34-424; design: species or system turkey; conditions: competition with [3H]-DHA at 3 x KD; read-out: EC50 for ligand binding

βAR34-424: truncated turkey β1 adrenergic receptor, residues 34-424, C116L, C-terminal 10-histidine tag; parent receptor
antagonist binding remaining after heating, compared to unheated control [1]: approximately 50%
predicted Tm ([2]; NG): about 5 °C
active receptor after detergent exchange ([2]; resin washed with OG, NG or LDAO): no active receptors

1-[4,6-propyl-^3H]-dihydroalprenolol [[^3H]-dihydroalprenolol]
Kd ([3]; membranes, n=2): 2.8 ± 0.1 nM
Kd ([3]; semipurified receptor): 3.7 nM

C=CCc1ccccc1OC[C@@H](O)CNC(C)C [alprenolol, (−) alprenolol tartrate salt]
EC50 [4]: 78 nM
